Data taken from the supplement of paper PMC3334620.
Over roughly 33,000 sequences, “E-score (-0.5 to 0.5)” has its median near -0.013; the highest 2% begin near 0.3. Some of the results follow.

target: T1, Msn1 (UniProt P22148); test: PBM E-score (8-mer binding enrichment) (E-score (-0.5 to 0.5)); higher = stronger / more preferred TF binding; most listed sequences are background and not binding sites; conditions: protein concentration: 200 nM; construct: GST-full length
T1 sequence: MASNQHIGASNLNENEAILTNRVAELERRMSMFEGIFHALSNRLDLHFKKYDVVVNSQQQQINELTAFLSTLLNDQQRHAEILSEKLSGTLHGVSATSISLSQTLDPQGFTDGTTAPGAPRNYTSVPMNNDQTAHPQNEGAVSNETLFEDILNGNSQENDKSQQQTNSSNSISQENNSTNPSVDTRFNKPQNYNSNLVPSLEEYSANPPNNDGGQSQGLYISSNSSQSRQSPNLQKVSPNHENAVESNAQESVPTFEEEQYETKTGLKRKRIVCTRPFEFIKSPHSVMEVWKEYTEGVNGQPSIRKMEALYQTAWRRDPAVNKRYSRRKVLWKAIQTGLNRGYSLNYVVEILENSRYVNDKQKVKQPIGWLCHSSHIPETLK
In short: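 E-scores (a modified Wilcoxon-Mann-Whitney statistic) were assigned by the Universal PBM Analysis Suite to every ungapped eight-base word pooled with its reverse complement. The input came from universal all-10-mer Agilent arrays made double-stranded by primer extension and probed with GST-tagged yeast transcription factors at about 100-200 nM. Fluorescent anti-GST detected bound protein, and masliner normalised the scans.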

| Sequence | PBM E-score |
| --- | --- |
| ACCCTCAT | -0.193 |
| CCGGTTAG | -0.0418 |
| CTAAGAAG | 0.0808 |
| GAGCGACC | -0.092 |
| CAAACCCA | 0.193 |
| CGGACAAG | 0.418 |
| CACTCCCG | -0.221 |
| AACACGCC | -0.12 |
| GGATAAGA | -0.0955 |
| AGTAAATC | 0.0555 |
| GAAATGTC | 0.487 |
| AAGATTGA | -0.0967 |
| CGTATCCA | -0.0727 |
| GAATAGTA | 0.172 |
| ACTGAGAA | 0.0683 |
| GCAACCCC | -0.177 |
| ACGGACTC | 0.00234 |
| CGGGATTA | 0.00663 |
| ATAAATGG | 0.0876 |
| ATGACGAG | -0.0459 |
| ACATTTAT | 0.319 |
| GCTCTTTA | -0.0377 |

| Sequence | PBM E-score |
| --- | --- |
| ACCCACGT | -0.0473 |
| CTCTCTGC | -0.165 |
| AAACGGTA | 0.207 |
| AGCATTAG | -0.0475 |
| ATCGTTGA | -0.0156 |
| ATCGTCAA | 0.114 |
| CACCTTAG | -0.138 |
| CGTCTTGA | 0.24 |
| ACGATGGC | -0.107 |
| AACAGAAA | 0.00656 |
| GTACACAA | 0.245 |
| GTACAACA | 0.223 |
| ATACATGC | -0.0108 |
| CGCGTTCA | 0.0682 |
| CATGCCGG | 0.114 |
| CTATGACA | 0.375 |
| GCAGGAAC | -0.0846 |
| ATGGTTTA | 0.061 |
| CCATTATA | 0.135 |
| CTCGTTGC | 0.0629 |
| TACTGGGA | 0.139 |
| AGCGAGGG | -0.293 |

| Sequence | PBM E-score |
| --- | --- |
| AGTGCGAC | -0.0454 |
| CGAAAGAA | 0.0235 |
| ACCCGAGG | -0.0428 |
| TGTGTTAA | 0.1 |
| CTCTTGTC | 0.339 |
| AGATTTAG | 0.0382 |
| TACATTAA | 0.277 |
| GTGTAATA | 0.0143 |
| ATGGCCAA | 0.0575 |
| GCGGGCCA | -0.199 |
| CAAGGGCA | -0.0151 |
| ACGCCATC | -0.0776 |
| ATGAGACC | -0.0403 |
| ATCAAAGG | 0.00205 |
| CCACCGAA | 0.0835 |
| ATTCATGA | 0.157 |
| AATTATCC | 0.137 |
| ACATGGTA | 0.0751 |
| GACAAGCA | 0.278 |
| AAGCTCGT | 0.0392 |
| ATTCTTTC | 0.0866 |
| GAGCGAGA | 0.191 |

| Sequence | PBM E-score |
| --- | --- |
| CACTGGAA | -0.137 |
| ACTGGAAA | -0.0354 |
| GGCCTGAC | -0.0709 |
| ACATTAGG | 0.138 |
| CGAGGGTC | -0.218 |
| GAGGCGAA | 0.016 |
| CTTGACAA | 0.215 |
| ATGTGGGA | 0.00864 |
| GAACATTC | 0.0801 |
| AATTTGCG | 0.058 |
| GCTGTACA | -0.0116 |
| TCACCTGA | -0.112 |
| ATCGATCA | 0.0526 |
| ACAGAAGT | 0.109 |
| CCATGGAC | 0.252 |
| CCGTAAAC | -0.0692 |
| GCCAGCCC | -0.319 |
| AGGCGACC | -0.0909 |
| GATCATCA | -0.0872 |
| CGCCGATA | 0.112 |
| ACGCCTCT | -0.177 |
| ACGAAGGC | -0.198 |

| Sequence | PBM E-score |
| --- | --- |
| ACCGAAGC | 0.0707 |
| ATCGCGCG | 0.0316 |
| CCGCAGGA | -0.352 |
| CGAGCCTC | -0.168 |
| AGCACGCT | -0.279 |
| ACTCTACA | -0.115 |
| CACTCCGA | -0.0486 |
| TCCATGCA | -0.00339 |
| TCATTAAA | 0.251 |
| CTTACGTC | -0.0829 |
| AAAGGTCG | -0.0994 |
| TCTTAAAA | 0.199 |
| GTTATGGA | 0.136 |
| CTTAGTAA | 0.16 |
| ACGAAGGA | -0.0295 |
| ACTGTAGG | 0.0398 |
| AGCTGTAT | -0.0176 |
| GGACGCGA | 0.0612 |
| TAGCAACA | 0.0526 |
| CCGCTAGC | -0.292 |
| ACCTTACC | 0.0657 |
